Measured values taken from the antibiotic and cytotoxicity screens of Wong et al. (2023).
Some of the results follow.

Columns and labels:
HSkMC = human skeletal muscle cells; test: cytotoxicity call (relative viability < 0.9); details: 10 µM
HepG2 = test: cytotoxicity call (relative viability < 0.9); details: 10 µM
S. aureus RN4220 = test: growth inhibition call (relative growth <= 0.2); details: 50 µM

Cc1ccc(S[C@]2(C(=O)NC3CC3)CC(=O)N(C3Cc4ccccc4C3)[C@@H]2c2ccc(CO)cc2I)cc1
cytotoxicity call (HSkMC): inactive | cytotoxicity call (HepG2): inactive | growth inhibition call (S. aureus RN4220): inactive

C=CCOC(=O)O[C@H]1[C@@H](OC)O[C@H](COC(=O)NCCCCCC(=O)NO)[C@@H](OC(=O)[C@H](CC=C)Cc2cccc(Br)c2)[C@@H]1OC(=O)[C@H](CC=C)Cc1ccccc1
cytotoxicity call (HSkMC): inactive | cytotoxicity call (HepG2): inactive | growth inhibition call (S. aureus RN4220): inactive

NC(=O)N1CCC[C@H](C(=O)O)C1
cytotoxicity call (HSkMC): inactive | cytotoxicity call (HepG2): inactive | growth inhibition call (S. aureus RN4220): inactive

CS(=O)(=O)N1CCc2c(-c3cnc(N)nc3)nc(N3CCOCC3)nc21
cytotoxicity call (HSkMC): active | cytotoxicity call (HepG2): active | growth inhibition call (S. aureus RN4220): inactive

CCN(CC)CCCNC(=O)C1CCNCC1
cytotoxicity call (HSkMC): inactive | cytotoxicity call (HepG2): inactive | growth inhibition call (S. aureus RN4220): inactive

C[C@H]1CN([C@@H](C)CO)C(=O)CCCn2cc(nn2)CO[C@@H]1CN(C)S(=O)(=O)c1ccc(Cl)cc1
cytotoxicity call (HSkMC): inactive | cytotoxicity call (HepG2): inactive | growth inhibition call (S. aureus RN4220): inactive

COc1ccc(S(=O)(=O)N(C)C[C@@H]2Oc3ncc(C#CC4(O)CCCC4)cc3C(=O)N([C@@H](C)CO)C[C@H]2C)cc1
cytotoxicity call (HSkMC): inactive | cytotoxicity call (HepG2): inactive | growth inhibition call (S. aureus RN4220): inactive

C[C@@H]1CN([C@H](C)CO)C(=O)c2cccc(NC(=O)Nc3ccc(C(F)(F)F)cc3)c2O[C@H]1CN(C)Cc1ccc2c(c1)OCO2
cytotoxicity call (HSkMC): inactive | cytotoxicity call (HepG2): inactive | growth inhibition call (S. aureus RN4220): inactive

CO[C@H]1CN(C)C(=O)c2cc(NS(=O)(=O)CC(F)(F)F)ccc2OC[C@H](C)N(C(=O)c2ccc3c(c2)OCO3)C[C@@H]1C
cytotoxicity call (HSkMC): inactive | cytotoxicity call (HepG2): inactive | growth inhibition call (S. aureus RN4220): inactive

COc1ccc(NC(=O)Nc2ccc3c(c2)C(=O)N([C@H](C)CO)C[C@H](C)[C@H](CN(C)S(C)(=O)=O)O3)cc1
cytotoxicity call (HSkMC): inactive | cytotoxicity call (HepG2): inactive | growth inhibition call (S. aureus RN4220): inactive

CS(=O)(=O)N1CCC2(CC1)CN(CCn1cccn1)C(=O)CO2
cytotoxicity call (HSkMC): inactive | cytotoxicity call (HepG2): inactive | growth inhibition call (S. aureus RN4220): inactive

CO[C@@H]1CN(C)C(=O)c2cc(NC(=O)c3cc(C)on3)ccc2OC[C@@H](C)N(S(=O)(=O)c2ccccc2)C[C@H]1C
cytotoxicity call (HSkMC): inactive | cytotoxicity call (HepG2): inactive | growth inhibition call (S. aureus RN4220): inactive

Cc1noc(C)c1S(=O)(=O)N(C)C[C@@H]1Oc2ccc(NS(=O)(=O)c3ccccc3)cc2CC(=O)N([C@H](C)CO)C[C@@H]1C
cytotoxicity call (HSkMC): inactive | cytotoxicity call (HepG2): inactive | growth inhibition call (S. aureus RN4220): inactive

CC1=C(C)C(=O)C(CCCCCCCCCC[P+](c2ccccc2)(c2ccccc2)c2ccccc2)=CC1=O
cytotoxicity call (HSkMC): active | cytotoxicity call (HepG2): active | growth inhibition call (S. aureus RN4220): inactive

COc1ccc(C#Cc2ccc3c(c2)[C@]2(C(=O)N3)[C@H](C(=O)N3CCN(c4ncccn4)CC3)[C@H]3C(=O)O[C@H](c4ccccc4)[C@H](c4ccccc4)N3[C@@H]2c2ccccc2OCCO)cc1
cytotoxicity call (HSkMC): inactive | cytotoxicity call (HepG2): inactive | growth inhibition call (S. aureus RN4220): inactive

CNC[C@H]1Oc2c(NS(=O)(=O)c3cn(C)cn3)cccc2C(=O)N([C@@H](C)CO)C[C@@H]1C
cytotoxicity call (HSkMC): inactive | cytotoxicity call (HepG2): inactive | growth inhibition call (S. aureus RN4220): inactive

CCCNC(C)C(=O)Nc1ccccc1C.Cl (centres undefined)
cytotoxicity call (HSkMC): inactive | cytotoxicity call (HepG2): inactive | growth inhibition call (S. aureus RN4220): inactive

COC(=O)C1=C(C)NC(C)=C(C(=O)NCCCN2CCC(c3ccccc3)(c3ccccc3)CC2)[C@@H]1c1ccc([N+](=O)[O-])cc1
cytotoxicity call (HSkMC): inactive | cytotoxicity call (HepG2): active | growth inhibition call (S. aureus RN4220): inactive

C[C@@H]1CN([C@@H](C)CO)C(=O)c2cc(NC(=O)CCC(F)(F)F)ccc2O[C@@H](C)CCCCO[C@@H]1CN(C)C(=O)Nc1ccc2c(c1)OCO2
cytotoxicity call (HSkMC): inactive | cytotoxicity call (HepG2): inactive | growth inhibition call (S. aureus RN4220): inactive

C[C@H](CO)N1C[C@H](C)[C@@H](CN(C)C(=O)Nc2ccc(C(F)(F)F)cc2)Oc2c(NC(=O)NC3CCCCC3)cccc2C1=O
cytotoxicity call (HSkMC): inactive | cytotoxicity call (HepG2): inactive | growth inhibition call (S. aureus RN4220): inactive

CCCC#Cc1ccc2c(c1)O[C@H](CN(C)S(=O)(=O)c1cccc(OC)c1)[C@@H](C)CN([C@H](C)CO)S2(=O)=O
cytotoxicity call (HSkMC): inactive | cytotoxicity call (HepG2): inactive | growth inhibition call (S. aureus RN4220): inactive

Cc1noc(C)c1S(=O)(=O)N(C)C[C@@H]1OCc2cnnn2CCCC(=O)N([C@H](C)CO)C[C@@H]1C
cytotoxicity call (HSkMC): inactive | cytotoxicity call (HepG2): inactive | growth inhibition call (S. aureus RN4220): inactive

COc1ccc(S(=O)(=O)N(C)C[C@H]2OCCCC[C@@H](C)Oc3ccc(NS(C)(=O)=O)cc3C(=O)N([C@H](C)CO)C[C@@H]2C)cc1
cytotoxicity call (HSkMC): inactive | cytotoxicity call (HepG2): inactive | growth inhibition call (S. aureus RN4220): inactive

COc1cc2c(cc1OC)CN(C(=O)[C@@H]1[C@H]3C(=O)O[C@H](c4ccccc4)[C@H](c4ccccc4)N3[C@H](c3ccc(OCCO)cc3)[C@@]13C(=O)Nc1ccc(C#CCCO)cc13)CC2
cytotoxicity call (HSkMC): inactive | cytotoxicity call (HepG2): inactive | growth inhibition call (S. aureus RN4220): inactive

COc1ccc(NC(=O)Nc2ccc3c(c2)[C@H]2C[C@H](CC(=O)NCC(F)(F)F)O[C@@H](CO)[C@H]2O3)cc1
cytotoxicity call (HSkMC): inactive | cytotoxicity call (HepG2): inactive | growth inhibition call (S. aureus RN4220): inactive

O=C(C[C@@H]1C/C=C/C[C@H](Cc2ccccc2)C(=O)N[C@H](c2ccccc2)COC1=O)NCc1ccc(Cl)cc1
cytotoxicity call (HSkMC): inactive | cytotoxicity call (HepG2): active | growth inhibition call (S. aureus RN4220): inactive

Cc1noc(C)c1S(=O)(=O)N(C)C[C@@H]1OCCCC[C@@H](C)Oc2ccc(NC(=O)Nc3ccc(C(F)(F)F)cc3)cc2C(=O)N([C@@H](C)CO)C[C@@H]1C
cytotoxicity call (HSkMC): inactive | cytotoxicity call (HepG2): inactive | growth inhibition call (S. aureus RN4220): inactive

C[C@@H]1[C@H]2[C@H](O[C@@H]3O[C@H](CO)[C@@H](O)[C@H](O)[C@H]3O)OC=C(C(=O)O)[C@H]2C[C@@H]1O
cytotoxicity call (HSkMC): inactive | cytotoxicity call (HepG2): inactive | growth inhibition call (S. aureus RN4220): inactive
